Results reported in the supplement of paper PMC10369915.
Some of the results follow. No stated cut-off is given here; in the data, active = 3.2 or more and inactive = the rest. Only a few entries rise above the background.

biological target: SHP2 C-SH2 domain E139D; experiment: enrichment score (SH2-bound / input frequency) (ratio); bacterial display of known human phosphotyrosine sites (pTyr-Var adds point mutants) read by sequencing; higher = stronger binding; tyrosines were phosphorylated by kinases first; settings: peptide library: pTyr-Var
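Further: displayed peptides selected on beads carrying the immobilized SH2 domain, with library peptides lacking any tyrosine serving as negative controls.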

Enrichment score, inactive:
SDPIIYTLENI [ADGRE1_Y534] 0.815
AEPPDYSPVTH [ADGRG2_Y285] 0.539
AEPPDYSPVTQ [ADGRG2_Y285_H290Q] 0.705
LHVKMYNFLRS [ADGRG7_Y760_R756H] 0.91
AVAFVYFKSIG [ADGRL4_Y301_YF] 1.61
VAFVYYKSIGP [ADGRL4_Y302] 0.763
VAFVFYKSIGP [ADGRL4_Y302_YF] 0.797
RMSSSYPTGLA [ADM_Y52] 0.597
TEALFYTDDPA [ADPRS_Y75_T79P_YF] 0.9
IMVFVYSRVFQ [ADRB2_Y219] 1.77
IMVFVYCRVFQ [ADRB2_Y219_S220C] 1.67
IQVDAYFSPIH [ADSL_Y432] 1.28
IQVNAYFSPIH [ADSL_Y432_D430N] 1.78
LPKEQYLFTKE [AFG3L2_Y614_YF] 1.11
GGTPLYRDRQG [AGXT_Y194_M195R] 0.587
AKKKMYSHKTK [AGXT_Y231_R233H] 2.81
AKKKMYSLKTK [AGXT_Y231_R233L] 2.1
REATAYLHGRL [AGXT_Y297_A295T] 0.595

biological target: SHP2 C-SH2 domain wild-type; experiment: as above; settings: peptide library: pTyr-Var

Enrichment score, inactive:
SDPIIYTLENI [ADGRE1_Y534] 0.985
AEPPDYSPVTH [ADGRG2_Y285] 0.552
AEPPDYSPVTQ [ADGRG2_Y285_H290Q] 0.523
LHVKMYNFLRS [ADGRG7_Y760_R756H] 1.38
AVAFVYFKSIG [ADGRL4_Y301_YF] 1.56
VAFVYYKSIGP [ADGRL4_Y302] 0.962
VAFVFYKSIGP [ADGRL4_Y302_YF] 0.967
RMSSSYPTGLA [ADM_Y52] 0.5
TEALFYTDDPA [ADPRS_Y75_T79P_YF] 1.36
IMVFVYSRVFQ [ADRB2_Y219] 1.43
IMVFVYCRVFQ [ADRB2_Y219_S220C] 1.64
IQVDAYFSPIH [ADSL_Y432] 1.24
IQVNAYFSPIH [ADSL_Y432_D430N] 2.14
LPKEQYLFTKE [AFG3L2_Y614_YF] 0.84
GGTPLYRDRQG [AGXT_Y194_M195R] 0.562
AKKKMYSHKTK [AGXT_Y231_R233H] 1.66
AKKKMYSLKTK [AGXT_Y231_R233L] 1.61
REATAYLHGRL [AGXT_Y297_A295T] 0.526

biological target: SHP2 N-SH2 domain L43F; experiment: as above; settings: peptide library: pTyr-Var

Enrichment score, inactive:
SDPIIYTLENI [ADGRE1_Y534] 0.87
AEPPDYSPVTH [ADGRG2_Y285] 0.504
AEPPDYSPVTQ [ADGRG2_Y285_H290Q] 0.579
LHVKMYNFLRS [ADGRG7_Y760_R756H] 1
AVAFVYFKSIG [ADGRL4_Y301_YF] 1.74
VAFVYYKSIGP [ADGRL4_Y302] 0.766
VAFVFYKSIGP [ADGRL4_Y302_YF] 0.842
RMSSSYPTGLA [ADM_Y52] 0.473
TEALFYTDDPA [ADPRS_Y75_T79P_YF] 1.41
IMVFVYSRVFQ [ADRB2_Y219] 1.46
IMVFVYCRVFQ [ADRB2_Y219_S220C] 1.33
IQVDAYFSPIH [ADSL_Y432] 1.28
IQVNAYFSPIH [ADSL_Y432_D430N] 2.06
LPKEQYLFTKE [AFG3L2_Y614_YF] 1.15
GGTPLYRDRQG [AGXT_Y194_M195R] 0.583
AKKKMYSHKTK [AGXT_Y231_R233H] 2.21
AKKKMYSLKTK [AGXT_Y231_R233L] 2.47
REATAYLHGRL [AGXT_Y297_A295T] 0.655

biological target: SHP2 N-SH2 domain T42A; experiment: as above; settings: peptide library: pTyr-Var

Enrichment score, inactive:
SDPIIYTLENI [ADGRE1_Y534] 0.699
AEPPDYSPVTH [ADGRG2_Y285] 0.477
AEPPDYSPVTQ [ADGRG2_Y285_H290Q] 0.58
LHVKMYNFLRS [ADGRG7_Y760_R756H] 0.849
AVAFVYFKSIG [ADGRL4_Y301_YF] 1.47
VAFVYYKSIGP [ADGRL4_Y302] 0.866
VAFVFYKSIGP [ADGRL4_Y302_YF] 0.894
RMSSSYPTGLA [ADM_Y52] 0.239
TEALFYTDDPA [ADPRS_Y75_T79P_YF] 0.962
IMVFVYSRVFQ [ADRB2_Y219] 1.38
IMVFVYCRVFQ [ADRB2_Y219_S220C] 1.31
IQVDAYFSPIH [ADSL_Y432] 1.27
IQVNAYFSPIH [ADSL_Y432_D430N] 1.66
LPKEQYLFTKE [AFG3L2_Y614_YF] 0.612
GGTPLYRDRQG [AGXT_Y194_M195R] 0.543
AKKKMYSHKTK [AGXT_Y231_R233H] 1.7
AKKKMYSLKTK [AGXT_Y231_R233L] 2.28
REATAYLHGRL [AGXT_Y297_A295T] 0.568

biological target: SHP2 N-SH2 domain T52S; experiment: as above; settings: peptide library: pTyr-Var

Enrichment score, inactive:
SDPIIYTLENI [ADGRE1_Y534] 0.864
AEPPDYSPVTH [ADGRG2_Y285] 0.649
AEPPDYSPVTQ [ADGRG2_Y285_H290Q] 0.504
LHVKMYNFLRS [ADGRG7_Y760_R756H] 1.14
AVAFVYFKSIG [ADGRL4_Y301_YF] 1.6
VAFVYYKSIGP [ADGRL4_Y302] 0.659
VAFVFYKSIGP [ADGRL4_Y302_YF] 0.532
RMSSSYPTGLA [ADM_Y52] 0.433
TEALFYTDDPA [ADPRS_Y75_T79P_YF] 1.07
IMVFVYSRVFQ [ADRB2_Y219] 1.46
IMVFVYCRVFQ [ADRB2_Y219_S220C] 1.72
IQVDAYFSPIH [ADSL_Y432] 0.973
IQVNAYFSPIH [ADSL_Y432_D430N] 1.87
LPKEQYLFTKE [AFG3L2_Y614_YF] 0.684
GGTPLYRDRQG [AGXT_Y194_M195R] 0.67
AKKKMYSHKTK [AGXT_Y231_R233H] 2.36
AKKKMYSLKTK [AGXT_Y231_R233L] 2.73
REATAYLHGRL [AGXT_Y297_A295T] 0.559

biological target: SHP2 N-SH2 domain wild-type; experiment: as above; settings: peptide library: pTyr-Var

Enrichment score, inactive:
SDPIIYTLENI [ADGRE1_Y534] 0.936
AEPPDYSPVTH [ADGRG2_Y285] 0.729
AEPPDYSPVTQ [ADGRG2_Y285_H290Q] 0.54
LHVKMYNFLRS [ADGRG7_Y760_R756H] 0.855
AVAFVYFKSIG [ADGRL4_Y301_YF] 1.6
VAFVYYKSIGP [ADGRL4_Y302] 0.92
VAFVFYKSIGP [ADGRL4_Y302_YF] 1.09
RMSSSYPTGLA [ADM_Y52] 0.832
TEALFYTDDPA [ADPRS_Y75_T79P_YF] 1
IMVFVYSRVFQ [ADRB2_Y219] 1.48
IMVFVYCRVFQ [ADRB2_Y219_S220C] 1.49
IQVDAYFSPIH [ADSL_Y432] 1.11
IQVNAYFSPIH [ADSL_Y432_D430N] 2.25
LPKEQYLFTKE [AFG3L2_Y614_YF] 0.664
GGTPLYRDRQG [AGXT_Y194_M195R] 0.681
AKKKMYSHKTK [AGXT_Y231_R233H] 1.8
AKKKMYSLKTK [AGXT_Y231_R233L] 1.7
REATAYLHGRL [AGXT_Y297_A295T] 0.895
